From PubChem BioAssay AID588855 (National Center for Advancing Translational Sciences (NCATS), 2011)
Values joined by “and” are separate entries in the source; they are usually repeats but may differ in a detail not shown here. Equal values may be shown once. About 5,000 (1.2%) of roughly 410,000 compounds were called active. Inconclusive results, whose numbers are uncertain, are shown with a selection of clear calls. Calls come from the whole dose curve; as a rule, active = well fitted inhibition curve with a large enough effect; inconclusive = small, poorly fitted or top-dose-only effect; inactive = no such curve, though single readings can be large or run the other way. Where the call is inconclusive, the potency comes from a doubtful curve fit.

test: qHTS for Inhibitors of TGF-b; conditions: HepG2 CAGA-GFP TGF-b/SMAD3 reporter, GFP fluorescence, 18 h, TGF-beta stimulated, 500 pg/mL final; series mostly up to 46.1 µM; note: nearly all actives have a fitted effect of over 65% in size
Method in brief: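 Read-out: total well GFP (ex488/em500-530) summed from mean per-cell fluorescence. Cells: HEPG2 CAGA-GFP, 1% FBS DMEM, 18 h at 37 degrees C with 500 pg/mL final TGF-beta. Unstimulated wells served as the full-inhibition control; stimulated DMSO wells = 0%.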
Potency is the fitted concentration of half-maximal effect; tags give direction and shape of the fitted curve.

Q: With `C=CCNC(=O)c1onc(CSc2ccc(OC)cc2)c1C(=O)O` as the molecule, how does the Potency read?
A: The Potency was inconclusive: 3.16 µM [inhibitor, single point].

Q: With `CCn1c(=N)c(C(=O)NC)cc2c(=O)n3cccc(C)c3nc21` as the molecule, how does the Potency read?
A: Its Potency is inconclusive: 12.6 µM [inhibitor, partial curve].

Q: For `Cc1sc2nc[nH]c(=S)c2c1-c1ccccc1`, which Potency is on record?
A: Its Potency is “inactive”.

Q: Which Potency does the source give for `Cc1cccc(-c2cc(N3CCCN(C)CC3)n3nccc3n2)c1` here?
A: The Potency was “inactive”.

Q: For `COc1cc(O)c(C(CCN2CCN(c3ccccc3)CC2)c2ccc3c(c2)OCO3)c(OC)c1` (stereo unspecified), which Potency is on record?
A: Its Potency is inconclusive: 1.58 µM [inhibitor, full curve, poor fit] and inconclusive: 7.94 µM [inhibitor, partial curve].

Q: For `Cc1nnnn1/C(=C\c1ccccc1)C(=O)OCC(=O)NC(C)(C)C`, which Potency is on record?
A: Its Potency is inconclusive: 35.5 µM [inhibitor, single point].

Q: Which Potency does the source give for `Nc1ccc(C#Cc2ccc3sc4ccccc4c(=O)c3c2)cc1` here?
A: Its Potency is “inactive”.

Q: With `COC(=O)c1sc2ccccc2c1-n1cccc1C(=O)C(=O)Nc1ccc(C)cc1` as the molecule, how does the Potency read?
A: Its Potency is “inactive”.

Q: For `CCC1CN(C(=O)NCc2ccc(C)cc2)c2cc(C)ccc2O1` (stereo unspecified), which Potency is on record?
A: Its Potency is inconclusive: 7.94 µM [inhibitor, partial curve, poor fit].

Q: With `Cc1cc(C)c(CN2CCN(C(=O)Cn3cnc4c(NCc5ccccc5)ncnc43)CC2)c(C)c1` as the molecule, how does the Potency read?
A: The Potency was inconclusive: 12.6 µM [inhibitor, single point].

Q: For `Nc1nnc(SCC(=O)Nc2cccc(S(=O)(=O)N3CCOCC3)c2)s1`, which Potency is on record?
A: Its Potency is inconclusive: 7.94 µM [inhibitor, partial curve, poor fit].

Q: Which Potency does the source give for `Cn1nnnc1SCCCNCc1ccc(-c2ccc(Br)cc2)o1` here?
A: Its Potency is inconclusive: 35.5 µM [inhibitor, single point].

Q: With `O=C(C1CC1)N1CCc2cc(Br)cc(S(=O)(=O)NCc3ccccn3)c21` as the molecule, how does the Potency read?
A: The Potency was inconclusive: 10 µM [inhibitor, partial curve].

Q: For `CC(NC(=O)C(Cc1ccccc1)NC(=O)c1ccccc1)C(=O)O` (stereo unspecified), which Potency is on record?
A: The Potency was inconclusive: 2.51 µM [inhibitor, full curve, poor fit].

Q: With `Cc1ccccc1C(=O)OCC(=O)N(C)c1c(N)n(Cc2ccccc2)c(=O)[nH]c1=O` as the molecule, how does the Potency read?
A: Its Potency is “inactive”.

Q: With `CCOC(=O)Cn1cc(Cn2c3ccccc3c(=O)n2C(C)C)nn1` as the molecule, how does the Potency read?
A: The Potency was inconclusive: 35.5 µM [inhibitor, single point].

Q: With `C[C@H](C[C@H](O)[C@H]1OC1(C)C)C1=C2C[C@H](O)C3[C@@]4(C)CCC(=O)C(C)(C)C4CC[C@]3(C)[C@@]2(C)CC1` (stereo partly specified) as the molecule, how does the Potency read?
A: The Potency was inconclusive: 15.8 µM [inhibitor, single point].

Q: For `CNc1ccc(/C=C2\C=Cc3ccccc32)cc1Cl`, which Potency is on record?
A: Its Potency is inconclusive: 0.251 µM [inhibitor, full curve].

Q: Which Potency does the source give for `CC(=O)N1CCc2c(sc(NC(=O)c3ccc4c(c3)OCCO4)c2C#N)C1` here?
A: Its Potency is “inactive”.

Q: Which Potency does the source give for `c1ccc(C2OC3c4cccc5cccc(c45)C3N2c2ccccc2)cc1` (stereo unspecified) here?
A: The Potency was inconclusive: 7.08 µM [inhibitor, full curve, poor fit].

Q: Which Potency does the source give for `C[C@@H](NCCCn1ccc(NC(=O)OCc2ccccc2)nc1=O)c1cccc2ccccc12` here?
A: Its Potency is inconclusive: 25.1 µM [inhibitor, single point].

Q: Which Potency does the source give for `CCOC(=O)c1c(C(F)(F)F)cc(-c2ccc(F)cc2)nc1C` here?
A: Its Potency is inconclusive: 35.5 µM [inhibitor, single point].

Q: For `O=C(CSc1nnc(Cn2nnc3ccccc32)o1)Nc1cccc(Cl)c1`, which Potency is on record?
A: Its Potency is “inactive”.

Q: For `Cc1cc(C)n(-c2ccnc3cc(Cl)ccc23)n1`, which Potency is on record?
A: Its Potency is “inactive”.

Q: For `O=C(Cc1ccccc1)NC(=S)Nc1ccc2oc(-c3ccccc3F)nc2c1`, which Potency is on record?
A: The Potency was inconclusive: 4.47 µM [inhibitor, single point].

Q: Which Potency does the source give for `CCOC(=O)c1c(NC(=O)c2ccc(S(=O)(=O)N3CCOCC3)cc2)sc2c1CC(C)(C)NC2(C)C` here?
A: The Potency was “inactive”.

Q: Which Potency does the source give for `CN(CC(=O)Nc1ccc(C#N)cc1)Cc1ccc(Cl)cc1Cl` here?
A: The Potency was inconclusive: 35.5 µM [inhibitor, single point].

Q: For `N#CC1=C(N)Oc2cc(N)ccc2C1c1ccccc1F` (stereo unspecified), which Potency is on record?
A: Its Potency is inconclusive: 3.16 µM [inhibitor, single point].

Q: For `Cc1cc(Nc2ccc(C)c(C)c2)c2ccccc2n1`, which Potency is on record?
A: Its Potency is inconclusive: 25.1 µM [inhibitor, single point].

Q: For `COc1cc2nc(SCc3ccc(Cl)cc3)n3nc(CCn4nc(C)cc4C)nc3c2cc1OC`, which Potency is on record?
A: The Potency was inconclusive: 22.4 µM [inhibitor, single point].

Q: With `CC(Nc1ccccc1CO)C(=O)Nc1cccc(Cl)c1Cl` (stereo unspecified) as the molecule, how does the Potency read?
A: The Potency was active: 3.98 µM.

Q: Which Potency does the source give for `CCCCCOC(=O)c1cc(=O)[nH]c2ccccc12` here?
A: Its Potency is “inactive”.

Q: Which Potency does the source give for `CC(=O)COc1ccc2c3c(c(=O)oc2c1)CCCC3` here?
A: Its Potency is inconclusive: 6.31 µM [inhibitor, single point].

Q: With `CC(C(=O)Nc1ccccc1)c1ccc(-c2ccccc2)c(F)c1` (stereo unspecified) as the molecule, how does the Potency read?
A: The Potency was inconclusive: 35.5 µM [inhibitor, single point].

Q: With `Fc1ccc(-c2nn(-c3ccccc3)cc2CNCc2ccccc2)cc1` as the molecule, how does the Potency read?
A: Its Potency is inconclusive: 15.8 µM [inhibitor, single point].

Q: Which Potency does the source give for `Cn1cc(CN2CCC(n3nccc3NC(=O)c3ccccc3Cl)CC2)c2ccccc21` here?
A: The Potency was inconclusive: 35.5 µM [inhibitor, single point].

Q: Which Potency does the source give for `COc1ccc(-c2cc([N+](=O)[O-])ccc2OCC(=O)N(C)CC(=O)Nc2ccc(C)cc2)cc1` here?
A: Its Potency is inconclusive: 35.5 µM [inhibitor, partial curve, poor fit].

Q: For `CC1(C)C2CCC1(CS(=O)(=O)Nc1ccc(S(=O)(=O)NC3CCCCC3)cc1)C(=O)C2` (stereo unspecified), which Potency is on record?
A: The Potency was inconclusive: 3.55 µM [inhibitor, full curve].

Q: For `CN1CCN(C(c2ccccc2)c2ccccc2)CC1`, which Potency is on record?
A: Its Potency is “inactive”.

Q: With `N#CC1(C#N)[C@@H](C(=O)C23CC4CC(CC(C4)C2)C3)C12CCOCC2` as the molecule, how does the Potency read?
A: The Potency was inconclusive: 4.47 µM [inhibitor, single point].

Q: With `Cc1ccn2c(Nc3ccc(F)cc3)c(-c3ccc(C)o3)nc2c1` as the molecule, how does the Potency read?
A: Its Potency is inconclusive: 35.5 µM [inhibitor, single point].

Q: With `CSc1ccc(CN2CCC2(C)C(=O)Nc2ccc3c(c2)OCO3)cc1` (stereo unspecified) as the molecule, how does the Potency read?
A: Its Potency is “inactive”.

Q: For `CC(NC(=O)c1ccc(Cl)cc1)c1nnc(SCC(=O)NC2=NCCS2)n1C` (stereo unspecified), which Potency is on record?
A: Its Potency is “inactive”.

Q: For `COC(=O)C1=C(C(=O)OC)SC2(S1)C(C(=O)OC)=C(C(=O)OC)SC1=C2c2cccc(C)c2NC1(C)C`, which Potency is on record?
A: The Potency was inconclusive: 12.6 µM [inhibitor, partial curve, poor fit].

Q: For `Clc1nc(-c2ccccn2)nc2scc(-c3ccccc3)c12`, which Potency is on record?
A: Its Potency is inconclusive: 35.5 µM [inhibitor, partial curve, poor fit].

Q: For `CCOC(=O)c1sc(N)c(C#N)c1COC(=O)CNC(=O)c1ccccc1`, which Potency is on record?
A: Its Potency is inconclusive: 5.62 µM [inhibitor, single point].

Q: Which Potency does the source give for `O=C1NCCCc2nc(Oc3ccccc3)sc21` here?
A: Its Potency is inconclusive: 35.5 µM [inhibitor, single point].

Q: For `CCOc1ccccc1NC(=O)CN(C)S(=O)(=O)c1ccc2[nH]c(=O)oc2c1`, which Potency is on record?
A: Its Potency is “inactive”.

Q: For `CC(C)(C)OC(=O)CNC(=O)c1[nH]cnc1C(=O)NC(c1ccccc1)c1ccccc1`, which Potency is on record?
A: Its Potency is inconclusive: 20 µM [inhibitor, single point].

Q: Which Potency does the source give for `Cn1c(CO)cnc1SCC(=O)c1ccc(Br)cc1` here?
A: The Potency was inconclusive: 10 µM [inhibitor, partial curve, poor fit].

Q: For `CN(C)/C=N/C(=S)Nc1ccccc1F`, which Potency is on record?
A: Its Potency is “inactive”.

Q: For `Cc1ccc(S(=O)(=O)NCCCCCC(=O)Nc2ccccc2C)cc1`, which Potency is on record?
A: The Potency was inconclusive: 6.31 µM [inhibitor, single point].

Q: For `CCOc1ccc(C2c3c(-c4ccc(C)cc4)n[nH]c3C(=O)N2c2ccc(Cl)cc2)cc1` (stereo unspecified), which Potency is on record?
A: The Potency was active: 4.47 µM.

Q: For `CCN(CC)C(=O)c1ccc(Oc2ccc([N+](=O)[O-])cc2Cl)cc1`, which Potency is on record?
A: The Potency was “inactive”.

Q: Which Potency does the source give for `N#Cc1c(-c2cccs2)nc(SCC(=O)c2cccs2)[nH]c1=O` here?
A: Its Potency is “inactive”.

Q: With `CC(N)c1csc(Nc2nccc(C(F)(F)F)n2)n1` (stereo unspecified) as the molecule, how does the Potency read?
A: Its Potency is “inactive”.

Q: With `O=S(=O)(Nc1cccc(-c2nc3cccnc3s2)c1)c1ccc2c(c1)OCCO2` as the molecule, how does the Potency read?
A: Its Potency is inconclusive: 35.5 µM [inhibitor, single point].

Q: For `CC/C(=N\NC(=O)CSCc1ccccc1Br)c1ccc2c(c1)OCCO2`, which Potency is on record?
A: Its Potency is “inactive”.

Q: With `Cc1cccc(N2CCN(C(=O)c3cccc(S(=O)(=O)N4CCOCC4)c3)CC2)c1C` as the molecule, how does the Potency read?
A: The Potency was “inactive”.

Q: With `O=C(CSc1nnc(NC(=O)NC2CCCCC2)s1)Nc1ccccc1F` as the molecule, how does the Potency read?
A: The Potency was inconclusive: 12.6 µM [inhibitor, single point].

Q: With `Cc1ccc(N2CCN(c3ccc(C)cc3)C2c2cccnc2)cc1` as the molecule, how does the Potency read?
A: Its Potency is inconclusive: 8.91 µM [inhibitor, partial curve].

Q: Which Potency does the source give for `c1ccc(CNCCC(Cc2ccccc2)c2ccco2)cc1` (stereo unspecified) here?
A: The Potency was active: 20 µM.

Q: For `CC(C)Oc1ccccc1OCCCOc1cccc2cccnc12`, which Potency is on record?
A: Its Potency is “inactive”.

Q: For `O=C(C=Cc1ccccn1)c1ccccc1O`, which Potency is on record?
A: Its Potency is inconclusive: 11.2 µM [inhibitor, single point].

Q: Which Potency does the source give for `Cc1ccc2c(c1)N(C(=O)CCC(=O)Nc1ccccc1Cl)CC(C)O2` (stereo unspecified) here?
A: Its Potency is “inactive”.

Q: With `COc1ccc(-n2c(SCC(=O)NCC3CCCO3)nc3c([nH]c4ccccc43)c2=O)cc1OC` (stereo unspecified) as the molecule, how does the Potency read?
A: The Potency was “inactive”.

Q: With `Cc1ccc(-c2[nH]ncc2/C=N/n2c(COc3ccccc3)nc3ccccc3c2=O)cc1` as the molecule, how does the Potency read?
A: The Potency was active: 10 µM.

Q: With `Cc1ccc(C2CC2c2n[nH]c(=S)n2-c2ccc(C)cc2)cc1` (stereo unspecified) as the molecule, how does the Potency read?
A: The Potency was “inactive”.

Q: For `Nc1nonc1-n1nnc(C(=O)N/N=C/c2cccs2)c1CSc1ccccc1`, which Potency is on record?
A: The Potency was “inactive”.

Q: Which Potency does the source give for `CC(OC(=O)Cc1c(F)cccc1Cl)C(=O)NCCC1=CCCCC1` (stereo unspecified) here?
A: Its Potency is inconclusive: 6.31 µM [inhibitor, single point].

Q: Which Potency does the source give for `CCN1CCC(N(Cc2cccc(OC)c2)C(=O)Nc2cccc(C(F)(F)F)c2)CC1` here?
A: Its Potency is inconclusive: 22.4 µM [inhibitor, single point].
